Measured values from the supplement of paper PMC11417369.
± gives the standard deviation of the averaged measurements. This is one part of the list.

These sequences were tested on PfAP2-EXP AP2 domain (GST-tagged) (assay: gcPBM binding intensity (ln(normalized median fluorescence intensity)); higher = stronger DNA binding).
Method in brief: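 After 1 h on an Agilent 4 × 180k array of primer-extended double-stranded 36-bp intergenic genomic probes and negative controls, bound GST-tagged P. falciparum DNA-binding domains were detected with Alexa488 anti-GST antibody and scanned at 488 nm. The domains had been expressed in E. coli, and binding took place in 1× PBS with 1% milk, 0.2 mg/ml BSA, 0.5% salmon testes DNA and 0.03% Triton X-100. Binding intensity is the highest Masliner-normalised natural-log median intensity across replicate spots of either probe orientation.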

Sequence | gcPBM binding intensity (ln)
TTTTTTTTTTTTACGTGTACATAAATGTTAAGTAAT [XGTACX_site3901] | 8.64 ± 0.44
TTTTTTTTTTTTTTTTTTTTTTTATGTTCTTAAAAA [GTGCAC_negctrl_site62] | 8.02 ± 0.67
TATAAATATTTATGTACACACATATACATGTTGAAT [CACACA_site5684] | 8.64 ± 0.24
TACATATATATATTATGTACATAAGGTTTGAGTTCA [XGTACX_site2726] | 8.69 ± 0.45
GAAAAAAAAGCTTGCACACGTATTTGCTTTATGTAT [CACACA_site4931] | 8.64 ± 0.5
TTTTTGGTATTATTGTGTACTTATAAATAATATAAT [XGTACX_site4019] | 8.64 ± 0.4
CAAGTAGATATTATACGTACATATATATATATATAT [XGTACX_site8349] | 10.2 ± 0.32
ATATAAAATATTACGTGTACACATAAATAAAAATAA [XGTACX_site3746] | 8.83 ± 0.24
ATATTTTGTAACTATACACACATATTTATATTATAA [CACACA_site7433] | 8.39 ± 0.45
ATATATATAAATAATTGTACATAATAATAAAATATA [XGTACX_site4839] | 8.65 ± 0.44
TAAAAAATATACATTCGTACATATATATTATATATA [XGTACX_site7918] | 8.12 ± 0.25
TTTTATACATATTTTACACACTAAAATATACCTATA [CACACA_site6286] | 8.62 ± 0.4
AATAAACATAAATAAAAATTATAAAATATATATATG [CACACA_negctrl_site1709] | 8.38 ± 0.32
ATATATATATATATTACACACTTTTTCTTTTTTTTT [CACACA_site2780] | 10.1 ± 0.11
ATAATTCCAAGAATTTCATATATCTGAATTTTAGGT [GTGCAC_negctrl_site283] | 8.02 ± 0.4
TTTACATTTCAGTAGACACACAAAAAATAATACTAA [CACACA_site512] | 8.54 ± 0.47
AAAAAAAAATATACATATATATATATATATATATAT [CACACA_negctrl_site1763] | 10 ± 0.5
TATACACTTATTGGTGGTACAATATATAAATATATG [XGTACX_site3289] | 8.36 ± 0.23
CAAAAGTAAGCACGCACACACAACATGAAATAAAAT [CACACA_site165] | 8.9 ± 0.55
ATTAGTATAATGTAACTTAGTTAATAGTGCTAATAT [CACACA_negctrl_site764] | 8.65 ± 0.29
TATATATATATTTATACACACACATATATTTATATA [CACACA_site8054] | 9.47 ± 0.071
TTTTTAATATATTAGGTGCACAATAATACACTTTAT | 8.99 ± 0.19
AAAAAAAAAAAAAAAACACACACATGCACATCATAT [CACACA_site8083] | 8.95 ± 0.18

Sequence | gcPBM binding intensity (ln)
TATATTTATAACAACACACACAGATCATAAAACTGC [CACACA_site7086] | 8.79 ± 0.45
ACAAAATAAAACATCTGTACATATTATTATTATAAG [XGTACX_site4802] | 8.34 ± 0.35
AAAAAAAACACGCGCACACACACACCCACCCACCGA [CACACA_site2206] | 8.98 ± 0.54
GAAATATTTGTAAAAACATGCATGGTACTTTTAAAA [TGCATGCA_site6] | 9.01 ± 0.47
TACATACTAAAAAAATGTACTTGTATTGTTTTTTTA [XGTACX_site8357] | 8.31 ± 0.29
ACATAAGAATTTTTATGTACTCATAATATTTTATAT [XGTACX_site2398] | 8.15 ± 0.28
TTATTTAACGTATTCTCACACATATATATATATAAT [CACACA_site5226] | 8.64 ± 0.42
TATATATATATATACACATGCAAAAATTTTTAATTT [TGCATGCA_site82] | 10.2 ± 0.35
TTTCTATATGGATTTGCACACATAAAAATGCTTATA [CACACA_site8751] | 8.49 ± 0.23
TCTTTAATGATGTGTACACAAGAAAACATTGTTAAG [CACACA_site5299] | 8.98 ± 0.41
TAGAAGCATCATTTTACACACATGCAAATGTAAAAT [CACACA_site1893] | 8.68 ± 0.42
AAAAATAAGAGCGTAGCACACACGCATTTTATAAAT [CACACA_site8147] | 8.64 ± 0.47
TTATATTAATAATAAAGTACAAAAAATCATATATAA [XGTACX_site799] | 8.53 ± 0.33
TTATTGAACTTTTATAAAACCTGTATTATTATCTCT [CACACA_negctrl_site767] | 8.51 ± 0.41
TCCAGGCTACACTCTAGTACTCGTAGGGTTATGAGA [XGTACX_site4945] | 8.49 ± 0.46
TATTTCTTATTACATACACACATATACATATATGAC [CACACA_site3201] | 8.76 ± 0.54
ATATATATATATATATGTACATATGTTAGGATCAAA [XGTACX_site8626] | 10.2 ± 0.33
ATGACATATAAATATACACACATACGTAAGTATATT [CACACA_site5058] | 8.19 ± 0.44
AATGGTCTTTTCAACACACGTACATAAAAATATTAT [CACACA_site2571] | 8.77 ± 0.23
GTGGAATAATATATATGTACATATTTAAAATATTTA [XGTACX_site3499] | 8.64 ± 0.27
TAAAAGTATATATATACACACATAAATATATCTGTA [CACACA_site4537] | 8.34 ± 0.35
TGACAACATAGAGGGGCACACACATATATACATAAA [CACACA_site8550] | 8.73 ± 0.52
ATTTTTTTACAAAAATGTACACATGAAATATGTAAT [XGTACX_site1372] | 8.39 ± 0.29

Sequence | gcPBM binding intensity (ln)
TATTATTTTAGAATGCGTACTTATAAAATATTTTAT [XGTACX_site867] | 8.59 ± 0.35
TTAAATTATTAGAGAGTGCATTATATATATTATACA [GTGCAC_site9711] | 8.53 ± 0.19
TACTGTTATAAATGTGGTACTAATATTATACATATA [XGTACX_site5116] | 8.45 ± 0.35
GTGTGATGGTCCAATATACACACTTAAAAAAAAAAA [CACACA_site2426] | 8.29 ± 0.42
AATTGTTAATGGTACGAACACACATATAAAGATGCA [CACACA_site2043] | 8.99 ± 0.38
AGAATTAAAATAATACGTACACACATGTATAATACA [XGTACX_site1878] | 8.71 ± 0.33
ATTATATCTATAATATGTACATATTATAATATATAT [XGTACX_site3211] | 8.52 ± 0.28
TGTACAATATAAGGAGCACACAAAAATGGATAAATA [CACACA_site8216] | 9.04 ± 0.46
ATTTTATTTTATTAAGTGCAAAAAAAAAAAAAGAAA | 8.755 ± 0.035
ACCTCTCATATGTTATAAACAAAATGAAAATTTCAT [XGTACX_negctrl_site303] | 8.88 ± 0.41
ATATGGCATAAAACATGTACATGTTCATAAATATAT [XGTACX_site1924] | 8.82 ± 0.36
AAAAAAAAAAAAAAAAGTACATGCCATATATTTTCA [XGTACX_site4580] | 8.7 ± 0.11
TTTTTTATCTAATATTTTATAATTTTCATAAATTTG [GTGCAC_negctrl_site534] | 8.12 ± 0.21
GCTAGTTCATAAAATTGTACAAAAAAAAAAAAAAAA [XGTACX_site2223] | 8.23 ± 0.28
TAAATAATGTTAAACACACATACCGATATATAATTA [CACACA_site2711] | 8.48 ± 0.47
AAATAATCTATACACAACGTATAAGAATAATATATG [TGCATGCA_negctrl_site422] | 8.55 ± 0.33
AATAGAAACATTTTACATGTATATATAATTTTTTTT [XGTACX_negctrl_site190] | 8.2 ± 0.3
TATACAGACAGACACACACACATATATATATATATA [CACACA_site1734] | 10.1 ± 0.42
TATATATAAGAAAAAAGTACAGATATATATATATTC [XGTACX_site4788] | 8.82 ± 0.37
AAATTTTCACTTCAAAAACACACGTATTTTTTTCCT [CACACA_site3813] | 8.73 ± 0.47
TGTTATATTATAACTACACACGTATTATGTTATATC [CACACA_site839] | 8.4 ± 0.48
TTTTAAGAAAAAAAATGTACACATGAAAATAGTGAA [XGTACX_site5898] | 8.56 ± 0.38
CCTAAATAATATCTATCACACACGCATATATACATA [CACACA_site8838] | 8.49 ± 0.48

Sequence | gcPBM binding intensity (ln)
TCTATTTATATGTATTGTACAATATAGATGTGTATT [XGTACX_site5646] | 8.67 ± 0.42
TTATATTTATATTTATGTACATATTTTGTGTGAAAA [XGTACX_site2367] | 8.84 ± 0.4
AGTGTATATAGAAACATACACACATATTAATTTTAC [CACACA_site3127] | 8.3 ± 0.28
TAGCTGTTCAAAAAATGTACATATATAATATATATA [XGTACX_site5842] | 8.665 ± 0.078
ATATATATGCATTCAAGTACAAAAATATATGTTAAA [XGTACX_site910] | 8.73 ± 0.57
TTCTATATATAATATTGTACTTAATTATTTTATTTT [XGTACX_site2701] | 8.41 ± 0.28
GTAATACACAGACACACACACATACACATATTTATA [CACACA_site7313] | 8.72 ± 0.48
AAATTAAAAATAATTACACACATAGAAAAATTATAT [CACACA_site2275] | 8.51 ± 0.38
ACATTATAATATTATTGTACTATATATATAATATAT [XGTACX_site2291] | 8.42 ± 0.34
ATATAATAACATAACACACACATGTATTTATAGGTG [CACACA_site359] | 8.52 ± 0.4
GATAATCAGAATGGGGTGCAAAGAAAAAAAAAAAAA | 9.04 ± 0.19
AAAAAAAAAAAAAAAACACACATATATATATAATAT [CACACA_site1159] | 8.54 ± 0.3
ATATTGAAATGTTAATAGAAATATATGGTTAAATTG [XGTACX_negctrl_site212] | 8.34 ± 0.34
ATAATAAGAAAAAAAAAAAAAAAAAAAAAAAAAAAA [TGCATGCA_negctrl_site377] | 8.03 ± 0.4
ATGTATATAAATAGGTGTACATATAAGGTGTTAAGC [XGTACX_site5465] | 9.5 ± 0.41
TACACAAACGTTATACGTACACAGGTTTTTCTTTTA [XGTACX_site5427] | 8.54 ± 0.47
TTCAATAGTAAGTATACACACATATAAATAAATAAA [CACACA_site7295] | 8.76 ± 0.47
AAAAAAAAAATATATTGTACAATATTGTAGCTATAT [XGTACX_site7180] | 8.54 ± 0.38
TTTTTGTTATTTTTAGTGCAGAAGAATAAATTTTAA | 8.4 ± 0.16
AAAATTTCTTATTTTGTACACACAATAAATATTCAC [CACACA_site8464] | 8.45 ± 0.23
